# Laboratory results as given in the BET-seq Pho4 binding data (Le et al. 2018).
# Some of the results follow. The energies were worked out here from pooled read counts, against the library average; single values are noisy.
# Molecular target: T1, Pho4 (S. cerevisiae) (UniProt P07270)
# T1 sequence: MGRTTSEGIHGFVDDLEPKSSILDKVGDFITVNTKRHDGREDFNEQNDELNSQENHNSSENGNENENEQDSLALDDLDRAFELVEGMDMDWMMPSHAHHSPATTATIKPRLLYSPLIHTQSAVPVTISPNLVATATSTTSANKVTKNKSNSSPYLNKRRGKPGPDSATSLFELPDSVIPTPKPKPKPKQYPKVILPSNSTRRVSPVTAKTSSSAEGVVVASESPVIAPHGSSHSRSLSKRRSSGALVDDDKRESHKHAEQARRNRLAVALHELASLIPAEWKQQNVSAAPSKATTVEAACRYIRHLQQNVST
# Experiment: relative binding free energy (BET-seq); higher = weaker binding
# Details: reference: library average
row,Sequence,relative binding free energy [kcal/mol]
1,TGAAGCACGTGTAGGT,-0.03
2,TGGCACACGTGCTTGG,-0.06
3,TCAGGCACGTGTGGTC,-0.08
4,ATGTTCACGTGAGTTA,0.38
5,ATTGTCACGTGTCTGT,0.11
6,AGGGGCACGTGGCGCT,-0.12
7,TGAGTCACGTGATTTC,0.29
8,AAAGTCACGTGGTGTG,0.08
9,ATTTTCACGTGATAAT,0.35
10,GCTGACACGTGGTCGG,0
11,TTCGTCACGTGTGTGT,0.12
12,GACGGCACGTGTTGGG,0.01
13,TAGCTCACGTGGGGGT,0.04
14,GTGAGCACGTGTGCGT,-0.07
15,GGTGGCACGTGCTTTA,-0.15
16,AGGGTCACGTGTAATA,0.28
17,TGAATCACGTGAGGCG,0.26
18,AAAGTCACGTGAAGGG,0.29
19,GTAGGCACGTGAGGTA,0.09
20,TTTGTCACGTGCCTGG,-0.04
21,CAGGTCACGTGGTGTA,0.01
22,GAGTGCACGTGGTGGG,-0.04
23,GCATGCACGTGTGGCG,0.05

row,Sequence,relative binding free energy [kcal/mol]
1,CGCGTCACGTGTTTGT,0.09
2,TTTTGCACGTGCTTGG,0.04
3,CCTGGCACGTGGTGTT,-0.12
4,AGCGTCACGTGTTATG,-0.01
5,CAAGGCACGTGGGGCA,-0.24
6,TTTGACACGTGACGGG,0.08
7,ATGGTCACGTGACTGC,0.3
8,TAGAACACGTGATGGT,0.11
9,TATATCACGTGTTCAG,0.07
10,ACTGTCACGTGTGATG,0.06
11,TTGAACACGTGGGCGT,0.01
12,TATTCCACGTGATAGT,0.16
13,TGATCCACGTGTTGGA,0.06
14,AGTCTCACGTGGGAGG,0.07
15,AAGGGCACGTGGAGGA,-0.09
16,GGACTCACGTGGGGCT,0.1
17,GTAAGCACGTGGAAGG,-0.04
18,GTGGTCACGTGGTTCC,0.11
19,TGTTCCACGTGGTCAT,0.02
20,GGGTGCACGTGAAACG,0.43
21,AGATGCACGTGTGTGA,-0.01
22,TTGTGCACGTGGATAA,-0.07
23,TAATGCACGTGTGGTA,-0.01

row,Sequence,relative binding free energy [kcal/mol]
1,GTTTACACGTGGAAGG,0.21
2,TTTAGCACGTGAGGCT,0.12
3,GTGATCACGTGTGTAG,0.16
4,GCGTGCACGTGTGATG,0.22
5,ATGGACACGTGAGTGT,0.2
6,GCTGTCACGTGGGGCG,0.01
7,TTCGTCACGTGGAAGA,0.21
8,GCGGGCACGTGCGTGA,-0.12
9,GGAATCACGTGATGAG,0.31
10,GTTAACACGTGTTTGT,0.02
11,TGTAGCACGTGGTACT,-0.16
12,TGATTCACGTGGATGT,0.3
13,CGGTGCACGTGGGGCG,-0.14
14,ACTAACACGTGGGGTG,-0.15
15,GGACTCACGTGCTGGT,0.15
16,GGTGGCACGTGTAACG,-0.02
17,GTGATCACGTGGTGTA,-0.05
18,TGTGCCACGTGGCTGG,-0.16
19,TTAAGCACGTGTGGCG,0.04
20,AGGCGCACGTGGTGCT,-0.34
21,GCCGGCACGTGGAGGG,-0.12
22,TTCAGCACGTGTGGTA,-0.01
23,CGTATCACGTGTGCTG,0.13

row,Sequence,relative binding free energy [kcal/mol]
1,GTATACACGTGACGTG,0.23
2,TTGGACACGTGGTAGC,0.08
3,CTTTTCACGTGTGTGA,0.18
4,AAAAGCACGTGGTGTA,-0.14
5,ATATACACGTGGATAG,0.05
6,GGGTACACGTGGCGCG,0.07
7,ATGGGCACGTGGAAAT,0.08
8,TTTCGCACGTGAGTGG,0.13
9,TGAATCACGTGATATG,0.33
10,ATCTTCACGTGAGGGA,0.25
11,TGTCTCACGTGAGGGC,0.28
12,TATACCACGTGAGGTG,0.23
13,TAGTTCACGTGTAGAT,0.38
14,GGTCTCACGTGTAAGG,0.33
15,CGGGGCACGTGGGGTT,-0.15
16,CGTATCACGTGGGAGG,0.03
17,AGCTGCACGTGTGTGA,0.1
18,GCGGTCACGTGACGGG,0.26
19,ACGAGCACGTGGTGTG,-0.22
20,TAGTCCACGTGTGAGG,0.13
21,AGTATCACGTGTTCGG,0.21
22,GAGGGCACGTGGGTAT,-0.1
23,TTTGACACGTGAAGGC,0.3

row,Sequence,relative binding free energy [kcal/mol]
1,ATTGGCACGTGGGCCG,-0.2
2,GCTTGCACGTGCGTGA,0.06
3,CTGATCACGTGGGCTG,0.01
4,TGTGTCACGTGACCGG,0.27
5,TATGGCACGTGCGTAT,-0.08
6,TGGATCACGTGCAAGG,0.07
7,GGTAGCACGTGGTCCG,-0.15
8,TAGAGCACGTGTCGTG,-0.11
9,TGGGACACGTGATATG,0.1
10,GTGTACACGTGGTGCA,-0.1
11,TAGGTCACGTGATGCT,0.17
12,TGGTGCACGTGAATGG,0.16
13,GGGATCACGTGAGGGA,0.29
14,TGGAGCACGTGCTTGT,-0.1
15,GTGATCACGTGGTTCT,0.22
16,AAGGTCACGTGTGTTA,0.11
17,TGTTGCACGTGTGTCT,0
18,ATGTACACGTGCCAGG,0.11
19,TAAATCACGTGTTTCT,0.12
20,GGAGGCACGTGTCGTA,0.01
21,GGGTGCACGTGTTCAT,0.03
22,GATGTCACGTGTGTTC,0.04
23,TGAGGCACGTGGGGTC,-0.06
